# Measurements taken from paper PMC4336329 (PLoS ONE, 2015).
# The whole screen tested about 310,000 compounds, of which about 14,000 (4.5%) showed an effect of 50% or more. The effect is printed as a negative number. The list shows a part of the results.
# Target: human ether-à-go-go-related gene (hERG) potassium channel (human, UniProt Q12809)
# Assay: primary screen, population patch clamp on CHO cells stably expressing hERG
# 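Note: peak tail current of the secondary pulse compared with the same well before compound.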
# Chain of human ether-à-go-go-related gene (hERG) potassium channel (Q12809 whole entry, looked up): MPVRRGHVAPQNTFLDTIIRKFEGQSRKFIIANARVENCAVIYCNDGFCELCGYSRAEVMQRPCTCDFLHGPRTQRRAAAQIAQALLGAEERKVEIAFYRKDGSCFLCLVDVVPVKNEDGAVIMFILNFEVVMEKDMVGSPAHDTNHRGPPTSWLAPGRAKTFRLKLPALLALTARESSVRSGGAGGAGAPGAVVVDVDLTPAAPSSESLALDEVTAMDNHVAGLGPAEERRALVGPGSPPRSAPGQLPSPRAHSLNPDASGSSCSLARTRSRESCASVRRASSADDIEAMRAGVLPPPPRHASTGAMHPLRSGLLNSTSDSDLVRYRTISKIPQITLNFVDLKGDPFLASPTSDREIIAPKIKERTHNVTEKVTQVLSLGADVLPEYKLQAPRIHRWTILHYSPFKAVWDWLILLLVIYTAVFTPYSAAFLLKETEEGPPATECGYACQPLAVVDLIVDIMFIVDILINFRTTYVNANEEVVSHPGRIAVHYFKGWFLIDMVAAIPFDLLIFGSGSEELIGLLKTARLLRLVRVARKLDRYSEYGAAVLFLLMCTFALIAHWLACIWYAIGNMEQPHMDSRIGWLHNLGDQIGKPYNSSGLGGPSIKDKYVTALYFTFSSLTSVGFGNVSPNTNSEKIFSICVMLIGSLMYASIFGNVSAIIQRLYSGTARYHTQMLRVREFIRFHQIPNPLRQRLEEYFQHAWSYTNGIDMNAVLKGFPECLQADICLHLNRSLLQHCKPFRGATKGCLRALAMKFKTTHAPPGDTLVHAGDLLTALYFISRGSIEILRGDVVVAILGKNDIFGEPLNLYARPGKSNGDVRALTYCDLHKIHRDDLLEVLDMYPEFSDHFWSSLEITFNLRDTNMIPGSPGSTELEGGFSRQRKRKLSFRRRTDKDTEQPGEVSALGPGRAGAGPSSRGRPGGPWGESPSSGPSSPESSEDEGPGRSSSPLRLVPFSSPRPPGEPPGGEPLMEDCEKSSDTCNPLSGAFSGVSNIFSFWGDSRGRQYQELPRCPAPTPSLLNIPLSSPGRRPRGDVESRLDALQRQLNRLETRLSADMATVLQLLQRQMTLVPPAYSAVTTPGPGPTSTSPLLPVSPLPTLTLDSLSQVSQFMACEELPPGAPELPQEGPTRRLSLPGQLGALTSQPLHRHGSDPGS
row,SMILES,"hERG current change (%, negative = inhibition) at 10uM [%]"
1,O=C(NC1CCCN(Cc2ccc(Cl)cc2)C1)c1ccoc1 (stereo not drawn),-50.1
2,CCOC(=O)N1CCN(c2nnc(-c3ccccc3)c3ccccc23)CC1,-22
3,Cc1cccc(-n2ncc3c(Nc4c(C)n(C)n(-c5ccccc5)c4=O)ncnc32)c1,-4.79
4,Cc1cccc(C)c1OCc1cc(C(=O)N(C)Cc2nc3ccccc3[nH]2)no1,-70.6
5,O=C(CSc1nc2ccccc2c2nc3ccccc3n12)NCc1ccco1,-8.55
6,CC(=O)c1ccc(Sc2ccccc2)cc1,2.63
7,CCOC(=O)c1cc(C(=O)c2cccs2)n2ccc(C(C)=O)cc12,13.9
8,O=C(Nc1ccccc1C(=O)N1CCCC1)c1ccccc1,4.09
9,CC(=O)OCC(=O)[C@@]1(O)CC[C@H]2[C@@H]3CCC4=CC(=O)CC[C@]4(C)[C@H]3[C@@H](O)C[C@@]21C,-2.73
10,COc1cc(Nc2ccc(S(=O)(=O)N3CCN(C)CC3)cc2[N+](=O)[O-])cc(OC)c1,-28.6
11,CCC(C)c1ccccc1NC(=O)C(C)OC(=O)CN1C(=O)NC(C)(C)C1=O (stereo not drawn),2.51
12,O=C(/C=C/c1ccccc1)C1=C(O)C(=O)N(CCO)C1c1cccc([N+](=O)[O-])c1 (stereo not drawn),21.3
13,CC(=O)c1c(COC(=O)c2ccc(Cl)cc2)nc2ccccc2[n+]1[O-],2.71
14,COC(=O)C1=C(C)N(CC2CC2)C(=O)N[C@H]1c1ccccc1,8.11
15,COc1ccc(NC(=O)CSc2nnc(Cn3nnc4ccccc43)n2C)cc1,2.27
16,CCc1ccccc1N(C)S(=O)(=O)c1ccc(-c2cc(C)no2)s1,11.8
17,O=c1[nH]c(Nc2nc3ccccc3o2)nc2c1CCCC2,9.44
18,O=C(CCNC(=O)c1ccc(Cl)cc1)NCc1cccc(C(F)(F)F)c1,-8.98
19,Cc1cc(C)n2nc3nc(N4CCCCC4)nc(-c4ccco4)c3c2n1,13.5
20,COC(=O)C1=C(C)NC(=S)N(C(C)=O)C1c1ccc(OC)c(OC)c1 (stereo not drawn),-3.49
21,CCC(NC(=O)COC(=O)C1CC2CCCC(C1)C2=O)c1ccc(Br)cc1 (stereo not drawn),-13

row,SMILES,"hERG current change (%, negative = inhibition) at 10uM [%]"
1,CCOc1ccc(C(C(=O)NCC2CCCO2)N(Cc2cccs2)C(=O)c2snc(C(N)=O)c2N)cc1 (stereo not drawn),4.91
2,CCN(CC(=O)NCc1ccc(Cl)cc1)C(=O)CCOc1ccc(C)cc1,-82.6
3,COC(=O)c1c(/N=C/NOCc2ccc(Cl)cc2)sc2c1CCN(c1ncc(C(F)(F)F)cc1Cl)C2,5.58
4,CCc1ccc(NC(=O)C2C3CCC(O3)C2C(=O)O)cc1 (stereo not drawn),19.1
5,COc1cccc(N2CCN(C(=O)CN3C(=O)NC(C)(c4ccc5ccccc5c4)C3=O)CC2)c1 (stereo not drawn),-16.5
6,COC(=O)N/N=C/c1cccc(OC(=O)c2ccc3c(c2)OCO3)c1,2.2
7,COc1cccc(OC)c1NC(=O)Cc1nn(C)c(=O)c2ccccc12,15.8
8,CCOC(=O)N1CCN(C(=O)c2ccc3c(c2)sc2nc(-c4ccccc4)cn23)CC1,-49.3
9,O=[N+]([O-])c1ccc(N/N=C/c2cccc(O)c2)cc1,15.4
10,COc1ccc(OC)c(CNS(=O)(=O)c2c(C)nc3scc(C)n3c2=O)c1,-1.86
11,CC(=O)Nc1ccc(C2=NN(Cc3nnc(-c4ccccc4)o3)C(=O)SC2)cc1,-16.6
12,CC(NC(=O)C1CC2CCCC(C1)C2=O)c1ccccc1 (stereo not drawn),-4.45
13,CC(C)N(C(=O)COC(=O)CNS(=O)(=O)c1ccccc1F)c1ccccc1,-10.4
14,O=C(NC1CCCc2ccccc21)N[C@@H](Cc1ccccc1)C(=O)O (stereo partly drawn),-0.795
15,COc1cc(Cl)ccc1OCc1cc(C(=O)NC(C)Cc2cnccn2)no1 (stereo not drawn),-53.8
16,O=C(OC1CCCCC1=O)c1cc(=O)c2ccccc2o1 (stereo not drawn),15.2
17,COc1ccc(NS(=O)(=O)c2cc(NC(=O)CC(C)(C)C)ccc2N2CCCC2)cc1,-8.54
18,CN(C)C(=O)CCC(=O)N1CCCC(C(=O)c2ccc(C(F)(F)F)cc2)C1 (stereo not drawn),4.35
19,CC(=O)C1C(c2ccccc2)c2c(n[nH]c2C)CC1(C)O (stereo not drawn),13.2
20,CC(C)(C)c1nc(CN2CCOCC2)cc(CN2CCOCC2)c1O.Cl,-15
21,N#CC1=C(N)n2c(s/c(=C\c3ccco3)c2=O)=C(C#N)C1c1ccco1 (stereo not drawn),-18.6
